Test results reported in paper PMC13083723 (Patterns, 2026).
Hit rate of the full screen: of about 5,400 compounds, about 190 (3.5%) showed an effect of 50% or more. Some of the results follow. Non-standard residues stand in square brackets, D forms with d. Residues, ends and D or L forms follow the SMILES beside them. pGlu = O=C1CC[C@@H](C(=O)O)N1; Thz = O=C(O)[C@@H]1CSCN1

What follows are compounds tested on Vero-E6 (assay: primary screen, phospholipidosis by LipidTOX staining; higher = more effect of the substance). Conditions: 10 µM.
Outline: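 Drug-induced phospholipidosis detected with HCS LipidTOX Red reagent in Vero-E6 cells. Compounds tested at 10 μM, with amiodarone (10 μM) as positive control and DMSO (0.1 v/v %) as vehicle.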
Cn1nc(C(C)(C)C)cc1C(=O)N[C@@H](Cc1cccc(Cl)c1)C(=O)NCC#N was tested, and the result_ITMP was -8.49%. CC1(COc2ccc(CC3SC(=O)NC3=O)cc2)CCCCC1 (centres unmarked) was tested, and the result_ITMP was -1.61%. CN(c1ncccc1CNc1nc(Nc2ccc3c(c2)CC(=O)N3)ncc1C(F)(F)F)S(C)(=O)=O showed a result_ITMP of 41.6%. CC(C)OC(=O)[C@H](C)N[P@@](=O)(OC[C@H]1O[C@@H](n2ccc(=O)[nH]c2=O)[C@](C)(F)[C@@H]1O)Oc1ccccc1 was tested, and the result_ITMP was 0.21%. Compound O=C(c1ccc(Cl)cc1)N(Cc1ccccc1)C1CCCCC1 has a result_ITMP of -0.41%. With CCCCCCCCCC(=O)OCCN1CCN(CCCN2c3ccccc3Sc3ccc(C(F)(F)F)cc32)CC1 the result_ITMP was 5.56%. With C=C1/C(=C\C=C2/CCC[C@]3(C)[C@@H]([C@H](C)/C=C/[C@H](C)C(C)(C)O)CC[C@@H]23)C[C@@H](O)C[C@@H]1O the result_ITMP was -2.3%. With O=C1C=CC[C@@H]2[C@H]3CCCN4CCC[C@@H](CN12)[C@@H]34 the result_ITMP was -2.58%. CC(CNC(=O)c1cccnc1)NC(=O)c1cccnc1 (centres unmarked) gave a result_ITMP of -5.4%. CC(C)SC(=N)N showed a result_ITMP of -3.42%. For O=C(O)C(=O)CBr, the result_ITMP was -2.27%. Compound O=C(Nc1ccccc1)N1CCN(c2nc(-c3ccccc3)ns2)CC1 has a result_ITMP of 3.42%. C=C[C@H]1C[N@]2CC[C@H]1C[C@@H]2[C@H](O)c1ccnc2ccc(OC)cc12 showed a result_ITMP of 3.64%. For COc1ccc(/C=C/C(=O)O)cc1, the result_ITMP was -5.6%. CC(OC(=O)NCC1(CC(=O)O)CCCCC1)OC(=O)C(C)C (centres unmarked) was tested, and the result_ITMP was -4.68%. Compound CC1=NN(c2ccc(C(=O)O)cc2)C(=O)/C1=C\c1ccc(-c2cc(C)c(C)cc2[N+](=O)[O-])o1 has a result_ITMP of -1.81%. With CC1(C)OC2(C)C(O)CC1CC2O (centres unmarked) the result_ITMP was -3.78%. Compound C[C@@H](c1nc(-c2ccc(C#N)cc2)cs1)[C@](O)(Cn1cncn1)c1ccc(F)cc1F has a result_ITMP of 1.42%. CN1CCN2c3ccccc3Cc3ccccc3C2C1 (centres unmarked) gave a result_ITMP of 15.9%. Compound CCCCCCCCOc1ccccc1C(=O)Nc1ccc(C(=O)OCC[N+](C)(CC)CC)cc1 has a result_ITMP of -2.34%. N[C@@H](Cc1ccc(O)c(O)c1)C(=O)O was tested, and the result_ITMP was -7.14%. CCCCc1ncc(/C=C(\Cc2cccs2)C(=O)O)n1Cc1ccc(C(=O)O)cc1 gave a result_ITMP of 4.58%. CC(C)(C)C#Cc1cc(N(C(=O)[C@H]2CC[C@H](C)CC2)[C@H]2CC[C@@H](O)CC2)c(C(=O)O)s1 showed a result_ITMP of -2.12%. Compound c1coc(-c2nnc3sc(C4CCCCC4)nn23)c1 has a result_ITMP of 10.7%. Compound Cc1ccc(S(=O)(=O)NCc2ccccc2)cc1 has a result_ITMP of -2.29%. O=c1[nH]c(=O)n(C2C[C@@H](O)[C@@H](CO)O2)cc1F (some centres unmarked) gave a result_ITMP of -11.2%. With CN1CCN(C(=O)O[C@H]2c3nccnc3C(=O)N2c2ccc(Cl)cn2)CC1 the result_ITMP was -5.6%. Compound COC(=O)C1=C(C)NC(C)=C(C(=O)OC(C)(C)CN(C)CCC(c2ccccc2)c2ccccc2)C1c1cccc([N+](=O)[O-])c1 (centres unmarked) has a result_ITMP of 33%. In the case of CC(C)(O)C(=O)N1CCN(c2ccc(C(F)(F)F)c(C3=C(c4c[nH]c5ccccc45)C(=O)NC3=O)c2)CC1, the result_ITMP is reported as 11.3%. O=C(Nc1cccnc1)c1cc(-c2ccnc(F)c2)ccc1OCc1ccccc1 was tested, and the result_ITMP was -7.05%. COc1cc2ncnc(Nc3cccc(Br)c3)c2cc1OC was tested, and the result_ITMP was -0.94%. COc1ccc(Cl)cc1NC(=O)Nc1cc(C)nc2ccccc12 gave a result_ITMP of -7.16%. In the case of CCn1c(=O)c(-c2ccc(Cl)cc2Cl)cc2cnc(Nc3ccc(N4CCNCC4)c(F)c3)nc21, the result_ITMP is reported as -0.74%. CN(C)CCC(c1ccc(Br)cc1)c1ccccn1 (centres unmarked) showed a result_ITMP of 13.9%. O=C([O-])CCCc1ccccc1 was tested, and the result_ITMP was 0.94%. COc1cc2ncnc(Nc3cccc(Cl)c3F)c2cc1OC(=O)N1CCN(C)C[C@H]1C was tested, and the result_ITMP was 10.7%. Work on O=c1[nH]c2ccccc2n1CCN1CCN(c2cccc(C(F)(F)F)c2)CC1 yielded a result_ITMP of 3.35%. Work on O=C1CC[C@@H](C(=O)N2CSC[C@H]2C(=O)O)N1 ([pGlu]-[Thz]-OH) yielded a result_ITMP of -3.91%. For c1ccc(-c2ccc(C(c3ccccc3)n3ccnc3)cc2)cc1 (centres unmarked), the result_ITMP was -0.6%. Oc1c(Cl)cc(Cl)c2cccnc12 gave a result_ITMP of -8.11%. With O=C([O-])C(O)[C@H](O)[C@H](O)[C@H](O)[C@H](O)CO (some centres unmarked) the result_ITMP was -2.15%. With CC(C)Oc1ccc(-c2nn([C@@H](C)c3oc4ccc(F)cc4c(=O)c3-c3cccc(F)c3)c3ncnc(N)c23)cc1F the result_ITMP was 0.92%. Work on O=C([O-])CCC(=O)OC[C@H](NC(=O)C(Cl)Cl)C(O)c1ccc([N+](=O)[O-])cc1 (some centres unmarked) yielded a result_ITMP of 1.81%. Work on COc1cc(Nc2c(C#N)cnc3cc(OCCCN4CCN(C)CC4)c(OC)cc23)c(Cl)cc1Cl yielded a result_ITMP of 68%. In the case of CC(C)(N)CC12CC3CC(CC(C3)C1)C2, the result_ITMP is reported as 35.1%. Compound CCCCc1oc2ccc(NS(C)(=O)=O)cc2c1C(=O)c1ccc(OCCCN(CCCC)CCCC)cc1 has a result_ITMP of 74.9%. In the case of CCC1(c2ccccc2)C(=O)NCNC1=O, the result_ITMP is reported as -1.24%. Compound N=C(Nc1ccccc1)c1cccs1 has a result_ITMP of -5.89%. COc1cc(/C=C/C(=O)[O-])ccc1O showed a result_ITMP of -1.05%. Cc1cc2c(cc1C(F)(F)F)N(C(=O)Nc1ccc(Oc3cccnc3C)nc1)CC2 was tested, and the result_ITMP was -1.15%. Compound CC1CCN(CC[C@H]2CCCN2S(=O)(=O)c2cccc(O)c2)CC1 has a result_ITMP of 0.47%. COc1cn(-c2ccc(-n3cccn3)cc2F)nc(-c2ccnn2-c2ccccc2)c1=O gave a result_ITMP of -1.11%. C[C@@H]1N=C(N)NC(N(C)C)=N1 gave a result_ITMP of -2.11%. Work on Nc1ncnc2c1ncn2[C@@H]1O[C@H](CO)[C@@H](O)[C@@H]1O yielded a result_ITMP of -0.52%. CC12CCC(=O)C=C1CCC1C2[C@@H](O)CC2(C)C1CC[C@]2(O)C(=O)COP(=O)(O)O (some centres unmarked) was tested, and the result_ITMP was -4.38%. Work on CC(C)NC(=O)N1CC[C@H](NC2=Nc3cc(F)ccc3N(CC(F)F)c3ccc(Cl)cc32)C1 yielded a result_ITMP of 2.43%. For COCc1c[n+]([O-])c(C)cn1, the result_ITMP was 2.97%. Work on O=c1[n-]c(=O)n(Cl)c(=O)n1Cl yielded a result_ITMP of -11.2%. CCN1CCN(C(=O)NC(C(=O)N[C@@H]2C(=O)N3[C@@H]2SC(C)(C)[C@@H]3C(=O)[O-])c2ccccc2)C(=O)C1=O (some centres unmarked) was tested, and the result_ITMP was -2.05%.
